PubChem BioAssay AID686978 (National Center for Advancing Translational Sciences (NCATS), 2013)
About 64,000 (15%) of roughly 420,000 compounds were called active. The inconclusive results got no clear call from the source; some entries with a clear call stand among them for comparison. Calls come from the whole dose curve; as a rule, active = well fitted inhibition curve with a large enough effect; inconclusive = small, poorly fitted or top-dose-only effect; inactive = flat fitted curve, though single readings scatter. Potencies of inconclusive entries are left out as doubtful fits.

Test: qHTS for Inhibitors of human tyrosyl-DNA phosphodiesterase 1 (TDP1): qHTS in cells in absence of CPT; note: nearly all actives have a fitted effect of over 55% in size
Conditions: DT40 Tdp1-/- hTDP1 cells, no CPT, ATP luminescence, 48 h; series mostly up to 46.2 µM
Summary of the method: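 Readout: luminescence from CellTiter-Glo after 30 min in the dark at RT. Cells: DT40 Tdp1-/- with stable hTDP1, 400/well. Exposure: compounds alone, ≥48 hr, 37 °C.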
Potency is the fitted concentration of half-maximal effect; tags give direction and shape of the fitted curve.

Row | Compound | Potency
1 | O=C1CC(C(=O)O)C2(CCCC2)O1 (stereo not given) | inactive
2 | CCc1oc(C(=O)OC)cc1CSC(=N)N | inconclusive [inhibitor, single point]
3 | CCc1nn2c(NCCOC)cc(C)nc2c1-c1ccc(F)cc1 | inconclusive [inhibitor, partial curve, poor fit]
4 | O=S(=O)(Nc1cc(Cl)ccc1-n1cncn1)c1ccc(F)cc1 | inconclusive [inhibitor, single point]
5 | O=C(COc1ccccc1)Nc1cc(C(F)(F)F)ccc1N1CCCC1 | inconclusive [inhibitor, single point]
6 | CCOC(=O)C(/C(C)=N/NC(=O)c1ccccc1[N+](=O)[O-])C(C)C (stereo not given) | inactive
7 | CC12CCC(=O)C=C1CCC1C3CC(O)C(O)(C(=O)CO)C3(C)CC(O)C12F (stereo not given) | inactive
8 | [O-][n+]1c2ccccc2[n+]([O-])c2cc(O)ccc21 | active: 13 µM
9 | Fc1cccc(F)c1[B-](F)(F)F | inactive
10 | Cc1csc(Sc2ccc(C(=O)OCC(=O)Nc3ccc(OC(F)(F)F)cc3)cc2[N+](=O)[O-])n1 | inconclusive [inhibitor, single point]
11 | COc1ccc(OC)c(NC(=O)c2c(NCc3cccs3)sc3c2CCCCC3)c1 | inconclusive [inhibitor, single point]
12 | COc1ccc(-c2ccc(NS(=O)(=O)c3ccc(NC(C)=O)cc3)cc2)nn1 | inconclusive [inhibitor, single point]
13 | CCCNC(=O)C(Cc1ccccc1)NC(=O)c1ccc(-c2ccccc2)cc1 (stereo not given) | inconclusive [inhibitor, single point]
14 | COc1ccc(C2c3cc(OC)c(OC)cc3CCN2C(=O)c2cccc([N+](=O)[O-])c2)cc1OC (stereo not given) | inconclusive [inhibitor, partial curve, poor fit]
15 | Cc1cc(OCC(=O)NC(C)C)cc(C)c1Br | inconclusive [inhibitor, partial curve, poor fit]
16 | CCc1ccccc1NC(=O)CN(C)S(=O)(=O)c1cccc2nsnc12 | inactive
17 | COc1ccc(CNC(=O)C2CCN(S(=O)(=O)c3cccnc3)CC2)cc1 | inactive
18 | O=C(CSc1nnc(-c2ccccn2)n1Cc1ccco1)c1ccc(-c2ccccc2)cc1 | inconclusive [inhibitor, single point]
19 | CN(CC(=O)Nc1ccc(F)cc1)C(=O)c1ccccc1Sc1ccccc1C#N | inconclusive [inhibitor, partial curve]
20 | COc1ccc(CCNC(=O)c2ccc3c(c2)CCN3S(=O)(=O)c2ccccc2)cc1 | active: 20.6 µM
21 | CCOc1cc(CNC(=O)c2cc(-c3ccccc3)n[nH]2)cc(OCC)c1OCC | inconclusive [inhibitor, single point]
22 | C=C(Br)CN1CCN(CC(=C)Br)CC1 | inconclusive [inhibitor, single point]
23 | COc1ccccc1N1CCN(C(=O)CC(NC(=O)c2ccccc2Cl)c2ccccc2)CC1 (stereo not given) | inconclusive [inhibitor, single point]
24 | C=CCNc1nc(Nc2ccc([N+](=O)[O-])cc2)nc(N2CCCC2)n1 | inconclusive [inhibitor, single point]

Row | Compound | Potency
25 | COc1ccc(-c2cc(C(=O)NCc3cccc(C(F)(F)F)c3)[nH]n2)c(C)c1 | inconclusive [inhibitor, single point]
26 | CCOc1ccc(CCNC(=O)COC(=O)c2c(OC)cccc2OC)cc1OCC | inconclusive [inhibitor, single point]
27 | O=C1CSc2ccc(C(=O)Nc3cccc(S(=O)(=O)Nc4ccc(Br)cc4)c3)cc2N1 | active: 8.2 µM
28 | CC(=O)CCC(=O)c1ccc2ccccc2c1 | inactive
29 | CCOc1ccc(C(=O)COC(=O)c2cc([N+](=O)[O-])ccc2N2CCOCC2)cc1 | inconclusive [inhibitor, single point]
30 | COc1ccc2[nH]cc(S(=O)(=O)c3ccc(C(C)C)cc3)c(=O)c2c1 | inactive
31 | COc1ccc(-c2noc(-c3ccccc3C(=O)N3CCOCC3)n2)cc1 | inconclusive [inhibitor, single point]
32 | Cc1ccc(S(=O)(=O)N2CCN(C(=O)Cc3sc(C)nc3-c3ccc(F)cc3)CC2)c(C)c1 | active: 18.4 µM
33 | CCc1ccc(NC(=O)CSc2nc3nc(C)cc(C)n3n2)cc1 | inconclusive [inhibitor, single point]
34 | Cc1nc(C)c(-c2ccc(SCc3ccccc3C)nn2)s1 | inconclusive [inhibitor, single point]
35 | COc1ccc(-c2noc(N3CCC(C(=O)Nc4cccc(C)c4C)CC3)n2)cc1 | active: 14.6 µM
36 | COc1cc(/C=C/C(C)=O)cc(OC)c1OC | inconclusive [inhibitor, single point]
37 | O=C1Nc2ccccc2/C1=N/N=C/c1ccc(-c2ccc([N+](=O)[O-])cc2)o1 | inconclusive [inhibitor, partial curve]
38 | O=C(NCC(=O)N1CCC2(CC1)NCCc1[nH]cnc12)c1ccc(F)cc1 | inactive
39 | O=C(CN1C(=O)NC2(CCCC2)C1=O)OCc1ccc(Br)cc1 | inconclusive [inhibitor, partial curve]
40 | Clc1ccc(Cn2c3c(c4ccccc42)CCc2cc4ccccc4nc2-3)cc1 | inactive
41 | O=C(Nc1ccc(Cl)cc1)C1c2cccc[n+]2CC(=O)N1Cc1ccc2c(c1)OCO2 (stereo not given) | active: 1.03 µM
42 | CCOc1cc(C(c2c(C)[nH]n(-c3ccccc3)c2=O)c2c(C)[nH]n(-c3ccccc3)c2=O)ccc1O | active: 5.17 µM
43 | Cc1ccc(N2C(=O)CC(C)(C)CC2=O)cc1Cl | inactive
44 | O=C(NN=Cc1ccccc1O)c1cccc([N+](=O)[O-])c1 | active: 0.164 µM
45 | O=C(NCCc1ccccc1)C1CCC(=O)N(CCCN2CCCC2=O)C1 (stereo not given) | inactive
46 | CCCCC(=O)OCC(=O)Nc1ccc(SC(F)F)cc1 | inactive
47 | COc1ccc(CCNC(=O)c2cnn(-c3ccc(F)cc3)c2C2CCN(C(=O)OC(C)(C)C)CC2)cc1OC | inconclusive [inhibitor, single point]
48 | COc1ccc(N2CCN(C(=O)c3cc4c(=O)n(Cc5cccnc5)ccc4nc3C)CC2)cc1 | inactive

Row | Compound | Potency
49 | COCCn1c(=O)[nH]c(=O)c2cc(C(=O)c3cc(OC)ccc3O)cnc21 | inconclusive [inhibitor, single point]
50 | O=C(CN1C(=O)C2(SCC(=O)N2c2ccc(F)c(F)c2)c2ccccc21)NCCc1ccccc1 (stereo not given) | inconclusive [inhibitor, single point]
51 | CCOC(=O)C1=CCN(S(=O)(=O)c2ccccc2C)C1c1ccccc1 (stereo not given) | active: 18.4 µM
52 | Cc1ccc(-c2csc(NC(=O)C3CC(=O)N(Cc4ccco4)C3)n2)cc1 (stereo not given) | inconclusive [inhibitor, single point]
53 | CCOC(=O)c1c(C)[nH]c2c1-c1ccccc1C(=O)C2=O | active: 0.651 µM
54 | CCCCN(CCCNC(=O)CN1C(=O)COc2ccc(S(=O)(=O)N3CCC(C)CC3)cc21)Cc1ccccc1 | inconclusive [inhibitor, single point]
55 | CCN(CC)S(=O)(=O)c1ccc(NC(=O)Cn2ncc3c([nH]c4ccccc43)c2=O)cc1 | inconclusive [inhibitor, single point]
56 | Cc1nc2c(C(=O)N3CCCCC3)cnn2c(C)c1Cc1ccccc1F | active: 15.8 µM
57 | Cc1c(OC(C)C(=O)NCC(O)c2ccccc2)ccc2c3c(c(=O)oc12)CCCC3 (stereo not given) | inconclusive [inhibitor, partial curve]
58 | N#CCCn1c(=O)c(-c2cccs2)nc2cnc(N3CCNCC3)nc21 | active: 3.66 µM
59 | COCCCn1c(SCC(=O)N2CCc3ccccc32)nnc1-c1ccco1 | inconclusive [inhibitor, partial curve]
60 | CC1(Cc2cccc(C#N)c2)C(=O)Nc2c(Cl)cccc21 (stereo not given) | inactive
61 | CCn1c(=O)c(C(=O)CN2CCN(S(=O)(=O)c3cc(C)ccc3C)CC2)c(N)n(Cc2ccccc2)c1=O | active: 16.4 µM
62 | CCc1ccc(N(CC(=O)N2CCCC2)S(C)(=O)=O)cc1 | inconclusive [inhibitor, full curve, poor fit]
63 | CC(=O)Nc1cccc(NC(=O)c2cccc(S(=O)(=O)N3CCN(Cc4ccccc4)CC3)c2)c1 | inconclusive [inhibitor, single point]
64 | O=C(NCCc1ccc(F)cc1)C(=O)NCC(c1ccco1)S(=O)(=O)c1ccccc1 (stereo not given) | inactive
65 | O=C(CSc1nnc(CNC(=O)c2ccccc2)o1)c1ccc(Cl)cc1 | inconclusive [inhibitor, single point]
66 | COC(=O)c1ccccc1NC(=O)CN(C)S(=O)(=O)c1ccc(OC)c(C)c1 | inconclusive [inhibitor, single point]
67 | CCOc1ccc(/C=C/c2nc(C#N)c(N3CCN(CC)CC3)o2)cc1 | active: 5.8 µM
68 | O=C(Cn1c(=O)n(Cc2ccco2)c(=O)c2c3c(sc21)CCCCC3)c1ccccc1 | active: 14.6 µM
69 | CC1(C(=O)Nc2cccc3cccnc23)CCN1Cc1ccc(-c2ccccc2)o1 (stereo not given) | active: 18.4 µM
70 | COc1ccc(S(=O)(=O)Cc2ccc(C(=O)N3CCN(c4ccc(Cl)cc4)CC3)o2)cc1 | inconclusive [inhibitor, single point]
